Drawing on PubChem BioAssay AID463173 (ICCB-Longwood Screening Facility, Harvard Medical School, 2010), this text covers survival for 90 compounds.

Hit rate of the full screen: of about 52,000 compounds, about 4,300 (8.3%) were called active. Cut-off read from the data, not from the text of the source: active = survival mostly below about 52% (no sharp cut-off); inactive = mostly above about 56%. Some of the results follow.

The assay relates to DeltatarO mutant. The assay can be described thus: S. aureus survival, RN4220 and DeltatarO strains – OD600, teichoic acid synthesis inhibitors, primary screen (AID 463173). Conditions: S. aureus RN4220 wild type/DeltatarO growth, OD600, 18 h, hits give low values, screened at 18.75 µg/mL (by protocol).
As for `COc1cccc(Cn2c(SCC(=O)N(C)c3ccccc3)nc3ccccc32)c1`, the survival is active: -4%.
In the case of `COc1cccc2cc(-c3csc(-c4ccc(Cl)cc4)n3)c(=O)oc12` it was inactive: 99%.
In the case of `Cc1cc(C)c(C#N)c(S(C)(=O)=O)n1` it was inactive: 106%; in that of `CCOc1ccccc1NC(=O)c1c(NCc2cccs2)sc2c1CCCCC2`, inactive: 71%; in that of `Cc1cc(C)nc(SCCC(=O)Nc2ccccc2)n1`, inactive: 96%.
In the case of `CCOc1ccc(NC(=O)c2c(NC(=O)c3ccccc3F)sc3c2CCC3)cc1` it was inactive: 155%; in that of `CC(=O)Nc1ccc(NC(=O)c2cc3sccc3n2Cc2ccc(Cl)cc2)cc1`, inactive: 97%; in that of `CCOC(=O)c1c(NC(=O)/C(C#N)=C/c2ccccc2)sc2c1CCC2`, inactive: 52%.
In the case of `COc1cc(NC(=O)Cn2cnc3c2c(=O)n(C)c(=O)n3C)c(OC)cc1Cl`, the survival was inactive: 65%.
To `Cc1cc(C)cc(NC(=O)Nc2ccccc2OCc2cc(=O)n3ccccc3n2)c1` belongs inactive: 84%; to `Cc1ccc(-c2nnc(Nc3ccc(OCC(N)=O)cc3)c3ccccc23)cc1S(=O)(=O)N(C)C`, inactive: 88%; to `CC(C)(C)c1ccc(C2=NC(C)(C)N(CC(=O)Nc3ccc(F)c(F)c3)C2=O)cc1`, inactive: 88%.
To `CCc1c(C)sc2c1CCN(C(=O)Nc1cc(Cl)c(OC)cc1OC)C2c1ccccc1` (stereo not given) belongs inactive: 63%; to `Cc1ccc(C)c2nc(SCC(=O)OC(C)C)c(C#N)cc12`, inactive: 92%; to `COc1cccc2c1Oc1ncccc1N(C(=O)CCC(=O)NC(C)C)C2`, inactive: 89%.
To `C#CCn1cnc2c(cnn2-c2ccc(F)cc2)c1=O` belongs inactive: 98%; to `CCC(=O)N1CCc2cc(Br)cc(S(=O)(=O)CCC(=O)Nc3ccc(C)c(F)c3)c21`, inactive: 86%; to `O=C(COc1ccccc1)NCC1CCCO1` (stereo not given), inactive: 101%.
As for `COc1ccc2c(c1)CC(C(=O)NCCCN1CCN(c3ccccc3F)CC1)CO2` (stereo not given), the survival was inactive: 87%.
To `COc1ccc2c(c1)-c1nc(/N=C/c3ccc(C)o3)sc1CC2` belongs inactive: 73%.
To `Cc1[nH]c2ccc(-c3nnc(SCc4ccc(F)cc4)o3)cc2c1C` belongs inactive: 94%; to `CCn1c(C)c(C)c2cc(C(=O)NCc3ccc(OC)cc3OC)ccc21`, inactive: 70%; to `CCN(CC)S(=O)(=O)c1ccc(NC(=O)c2c(C)oc3ncnc(N4CCOCC4)c23)cc1`, inactive: 100%.
Consider `CCOC(=O)/C(C#N)=C/c1ccc(N2CCCCC2)o1`, for which the survival is inactive: 73%.
In the case of `COc1ccc(-c2ccc(CCC(=O)O)n2CC(=O)Nc2cccc(Cl)c2C)cc1` it was inactive: 46%.
To `COc1ccc(CNC(=O)CCc2c(C)nc3nc(CNC(=O)OC(C)(C)C)nn3c2C)cc1` belongs inactive: 85%; to `CC(=O)c1cccc(Nc2nn(-c3ccc(OC(F)(F)F)cc3)nc2C(C)=O)c1`, inactive: 91%; to `O=C(CN1C(=O)CC(c2ccco2)Sc2ccccc21)Nc1ccc(Br)cc1` (stereo not given), inactive: 75%.
To `CCCNC(=O)C1CCN(Cc2cc3ccccc3n2Cc2ccccc2)CC1` belongs inactive: 87%.
With `COc1cc(C)ccc1OCCSc1nc2ccc(NC(=O)c3ccc(C)cc3)cc2s1`, the survival is inactive: 71%.
With `O=C1CN(C(=O)Nc2ccccc2Cl)C(c2ccccc2)c2c(sc3c2CCCC3)N1` (stereo not given), the survival is inactive: 73%.
To `Cc1nn(-c2ccccc2)c2c1N(CCCC(=O)NCc1ccccc1)C(=O)CS2` belongs inactive: 99%; to `COc1ccc(NC(=O)C(C)Sc2cc(-c3ccccc3)nc(C)n2)cc1Cl` (stereo not given), inactive: 55%.
To `CCNC(=S)N1CCC(C(N)=O)CC1` belongs inactive: 99%; to `COc1ccc(S(=O)(=O)N(C)C2CCCCC2)cc1`, inactive: 85%.
As to `CC[n+]1c(C)sc2sc3ccccc3c21`, the survival is inactive: 68%.
In the case of `COc1ccc(-c2cc(C(=O)NCCc3ccc(OC)c(OC)c3)c3ccccc3n2)cc1` it was active: 48%; in that of `COc1ccc(-n2ccn(Cc3ccccc3C)c(=O)c2=O)cc1`, inactive: 106%.
`Cc1ccc(OCC(=O)Nc2ccc3[nH]c(=O)sc3c2)cc1`: the survival is inactive: 93%.
In the case of `CCc1cc2c(cc3c(=O)n(CC(=O)NC4CCCCC4)ncn32)s1` it was inactive: 88%.
With `COc1cccc(C(c2sc3nc(-c4ccco4)nn3c2O)N2CCN(c3ccccc3F)CC2)c1` (stereo not given), the survival was inactive: 74%.
In the case of `CCOc1ccc(N(C(C)C(=O)NCCSc2ccc(C)cc2)S(C)(=O)=O)cc1` (stereo not given) it was inactive: 45%; in that of `CCCCn1cc(S(=O)(=O)c2ccc(CC)cc2)c(=O)c2cc(F)c(N3CCOCC3)cc21`, inactive: 83%; in that of `Cc1cc(C)cc(NC(=O)C(=O)NCC(c2cccnc2)N2CCN(c3ccccc3)CC2)c1` (stereo not given), inactive: 56%.
In the case of `COC(=O)c1ccc(Cn2nc(-c3ccc(C)cc3)ccc2=O)cc1` it was inactive: 133%.
Take `Nc1ccccc1N1CCN(C(=O)c2ccccc2)CC1`: the survival was inactive: 103%.
To `Oc1ccc(-c2cccc(-c3ccc(O)cc3)c2)cc1` belongs active: 27%.
To `O=C(COc1ccc(F)cc1)Nc1ccccc1OCc1cc(=O)n2ccccc2n1` belongs inactive: 89%; to `COc1ccc(-c2noc(-c3ccc(NC4CCCCC4)c([N+](=O)[O-])c3)n2)cc1`, inactive: 45%; to `CCc1nn2c(=O)cc(COC(=O)c3ccc(NC(=O)C4CCCCC4)cc3)nc2s1`, inactive: 81%.
In the case of `CCC1CCc2nc3sc(C(=O)Nc4cccc(C(F)(F)F)c4)c(N)c3cc2C1` (stereo not given) it was inactive: 133%; in that of `CCCc1cc(=O)oc2cc(C)c3c(C(C)(C)C)coc3c12`, inactive: 88%; in that of `COc1cccc(NC(=O)c2ccc3[nH]c(C)cc(=O)c3c2)c1`, inactive: 102%.
For `COc1ccc(S(=O)(=O)Nc2cc3c(cc2N2CCOCC2)n(C)c(=O)n3C)cc1`, the survival is inactive: 126%.
On to `Cc1ccccc1-c1nc(SCC(=O)NCC2CCCO2)c2c(=O)n(C)c(=O)n(C)c2n1` (stereo not given), for which the survival was inactive: 78%.
Regarding `COc1ccc(Cc2nc3ccc(C(=O)NCCCN4CCN(C)CC4)cc3o2)cc1`, the survival is inactive: 124%.
For the compound `COCCNC(=O)c1ccc2c(=O)n(CCOC)c(SCC(=O)c3c[nH]c4ccccc34)nc2c1`, the survival is active: 17%.
To `COc1ccc(N2CCN(C(=O)c3sc4nc5n(c(=O)c4c3C)CCC5)CC2)cc1` belongs inactive: 103%; to `Cc1cccc(CCNC(=O)CCc2c(C)nc3ncnn3c2C)c1`, inactive: 93%.
In the case of `CCc1cccc(NC(=O)c2oc3ccc4c(c3c2C)C(=O)CC(C)(C)O4)c1` it was inactive: 85%; in that of `COc1cccc(CN2C(=O)C3(SCC(=O)N3c3ccc(C(C)C)cc3)c3ccccc32)c1` (stereo not given), inactive: 55%.
In the case of `Cn1c(SCc2ccccc2Cl)nc2c([nH]c3ccccc32)c1=O` it was inactive: 65%.
For the compound `COc1cccc(CNS(=O)(=O)c2ccc(-c3cc(C(F)(F)F)on3)s2)c1`, the survival is inactive: 94%.
In the case of `O=C(c1ccc2c(c1)OCCO2)N(Cc1cccnc1)c1nc2c(F)cc(F)cc2s1` it was inactive: 88%.
In the case of `CCOC(=O)c1ccc(N2C(=O)Cc3cc(OCC)c(OCC)cc3C2c2ccccc2)cc1` (stereo not given) it was inactive: 117%; in that of `CCOc1ccc(NS(=O)(=O)c2ccc3[nH]cc(C(=O)N4CCCCCC4)c(=O)c3c2)cc1`, inactive: 113%.
In the case of `COc1ccc(N(CC(=O)Nc2cc(Cl)ccc2C)S(=O)(=O)c2c(C)noc2C)cc1` it was inactive: 51%.
For the compound `CCOc1ccc(C(=O)Nc2ccc3oc(-c4ccc(Br)cc4)nc3c2)cc1`, the survival is inactive: 68%.
Take `Cc1ccc(NC(=O)C2CCC(CNS(=O)(=O)c3cccc4nsnc34)CC2)c(C)c1` (stereo not given): the survival was inactive: 95%.
With `COc1ccc(-c2nc3sc(CCNC(=O)C(=O)Nc4ccc(C)cc4C)c(C)n3n2)cc1`, the survival was inactive: 71%.
In the case of `O=C(Cn1c(=O)oc2cc(S(=O)(=O)N3CCCC3)ccc21)Nc1ccc(OC(F)(F)F)cc1` it was inactive: 87%.
For the compound `Cc1nc2ccc(S(=O)(=O)N(CC(=O)Nc3cccc(C)c3C)Cc3ccccc3)cc2s1`, the survival was inactive: 89%.
In the case of `Cc1ccc(C)c(Cn2c(C(C)NC(=O)c3ccccc3)nc3ccccc32)c1` (stereo not given) it was inactive: 88%; in that of `O=C(CCn1cnc2onc(-c3ccc(F)cc3)c2c1=O)N1CCN(c2ccccc2)CC1`, inactive: 60%; in that of `COc1cccc(OCc2nc3ccccc3n2C)c1`, inactive: 57%.
To `O=C(NCc1noc2ccccc12)N1CCN(c2ccccc2F)CC1` belongs inactive: 40%.
In the case of `O=C(Cn1c(=O)n(Cc2ccc(F)cc2)c(=O)c2sc3ccccc3c21)NCc1ccccc1` it was inactive: 86%.
Turning to `Cc1ccc(OCCSc2nc3ccccc3n2CC(=O)N2CCCCC2)c(C)c1`, the survival is inactive: 51%.
To `CCOc1ccc(C(c2c(C)[nH]n(-c3ccccc3)c2=O)c2c(C)[nH]n(-c3ccccc3)c2=O)cc1OC` belongs inactive: 70%.
In the case of `CCN(CC)CCNC(=O)c1ccc2c(=O)n3nc(Nc4cccc(Cl)c4C)sc3nc2c1` it was inactive: 107%; in that of `CCc1ccc(-c2cn3c(n2)sc2cc(C(=O)NCCCc4ccccc4)ccc23)cc1`, inactive: 70%; in that of `CCOc1cccc2cc(-c3nc(-c4ccc(Cl)cc4)c(C)s3)c(=O)oc12`, inactive: 105%.
To `COc1ccc(-c2ccc(NS(=O)(=O)c3ccccc3Cl)cc2)nn1` belongs inactive: 75%.
`Cc1nc(N2CCOCC2)c2c(C(=O)N3CCN(c4ccc(Cl)cc4)CC3)c(C)oc2n1`: the survival is inactive: 92%.
To `COc1ccc(Cn2c(CCC(=O)Nc3cccc(Cl)c3)nc3cccnc32)cc1` belongs inactive: 97%.
In the case of `CCOC(=O)c1ccc(NC(=O)Cn2cc(S(=O)(=O)Cc3ccccc3F)c3ccccc32)cc1` it was inactive: 73%; in that of `CCCOc1ccccc1C(=O)Nc1ccc(-c2nc3ccc(C)cc3s2)cc1`, active: 29%.
To `Cc1cccc(Nc2cc(C)nc3nc(Cc4ccc(Cl)cc4)nn23)c1` belongs active: 36%.
`Cc1cc(-c2ccccc2)nc2cc(C(=O)Nc3cc(C(F)(F)F)ccc3Cl)nn12`: the survival was inactive: 58%.
As for `COc1ccc(CNC(=O)c2ccc3c(Cl)c4c(nc3c2)CCCC4)c(OC)c1`, the survival was inactive: 92%.
